Results reported in the antibiotic and cytotoxicity screens of Wong et al. (2023).
The other results are listed elsewhere or left out.

Key:
HSkMC = human skeletal muscle cells; experiment: cytotoxicity call (relative viability < 0.9); details: 10 µM
HepG2 = experiment: cytotoxicity call (relative viability < 0.9); details: 10 µM
S. aureus RN4220 = experiment: growth inhibition call (relative growth <= 0.2); details: 50 µM

Row | Structure (SMILES) | cytotoxicity call (HSkMC) | cytotoxicity call (HepG2) | growth inhibition call (S. aureus RN4220)
1 | C[C@H](CO)N1C[C@H](C)[C@@H](CN(C)C(=O)Nc2ccc3c(c2)OCO3)Oc2c(NC(=O)c3ccc(-c4nccs4)cc3)cccc2C1=O | inactive | inactive | inactive
2 | Cc1ccc(S(=O)(=O)Nc2ccc3c(c2)CC(=O)N([C@@H](C)CO)C[C@H](C)[C@H](CN(C)S(=O)(=O)c2cccs2)O3)cc1 | inactive | inactive | inactive
3 | C[C@@H]1COC(=O)[C@H](Cc2ccc(F)cc2)CC=CC[C@@H](CC(=O)N(CCO)Cc2ccccc2)C(=O)N1 | inactive | inactive | inactive
4 | O=C(C[C@H]1C[C@@H]2c3cc(NS(=O)(=O)c4ccc(F)cc4)ccc3O[C@@H]2[C@H](CO)O1)NCc1cccnc1 | inactive | inactive | inactive
5 | CCOc1cc(N)ncn1 | inactive | inactive | inactive
6 | C[C@@H]1CCCCO[C@H](CN(C)Cc2ccccc2)[C@@H](C)CN([C@@H](C)CO)C(=O)c2cc(NS(=O)(=O)c3ccccc3)ccc2O1 | inactive | inactive | inactive
7 | C[C@@H]1CN([C@H](C)CO)C(=O)CCCn2cc(nn2)CO[C@H]1CN(C)C(=O)Nc1ccc(N2CCN(C)CC2)cc1 | inactive | inactive | inactive
8 | C[C@H](CO)N1C[C@H](C)[C@@H](CN(C)S(=O)(=O)c2cn(C)cn2)Oc2c(NC(=O)c3cnccn3)cccc2C1=O | inactive | inactive | inactive
9 | NC[C@@H](O)COc1ccc2c(c1)OCO2 | inactive | inactive | inactive
10 | O=C(N1CCOCC1)[C@@]1(CCS(=O)(=O)c2ccccc2)N=C(c2ccc(OCCCO)cc2)O[C@H]1c1ccccc1 | inactive | inactive | inactive
11 | CN1C(=O)CCC1c1cccnc1 (centres undefined) | inactive | inactive | inactive
12 | C[C@@](Cc1ccc(O)c(O)c1)(NN)C(=O)O | inactive | active | inactive
13 | C[C@@H]1CCCCO[C@@H](CN(C)S(=O)(=O)c2ccc(Cl)cc2)[C@@H](C)CN([C@H](C)CO)C(=O)c2cc(NC(=O)Nc3cccc4ccccc34)ccc2O1 | inactive | inactive | inactive
14 | C[C@@H]1CCCCO[C@@H](CN(C)C)[C@@H](C)CN([C@H](C)CO)C(=O)c2cc(NC(=O)CCCN(C)C)ccc2O1 | inactive | inactive | inactive
15 | COc1ccccc1CNC(=O)C[C@H]1CC[C@H]2[C@@H](COC[C@H](O)CN2C(=O)Nc2ccc(F)cc2)O1 | inactive | active | inactive
16 | O=C1[C@@H]2[C@H](C(=O)N1c1ccccc1)C13COC[C@H](c4ccccc4)N1C(=O)C2(C(=O)NCCc1c[nH]c2ccccc12)O3 (some centres undefined) | inactive | inactive | inactive
17 | C[C@@H]1CN([C@H](C)CO)C(=O)Cc2cc(NS(C)(=O)=O)ccc2O[C@@H]1CN(C)C(=O)NC1CCCCC1 | inactive | inactive | inactive
18 | C[C@H]1CN([C@@H](C)CO)C(=O)CCCn2cc(nn2)CO[C@H]1CN(C)C(=O)Nc1cccc(Oc2ccccn2)c1 | inactive | inactive | inactive
19 | C[C@@H]1CN([C@H](C)CO)C(=O)c2cccc(NC(=O)c3cnccn3)c2O[C@@H]1CN(C)S(=O)(=O)c1cccs1 | inactive | inactive | inactive
20 | O=C(C[C@@H]1C[C@H]2c3cc(NC(=O)NC4CCCC4)ccc3O[C@H]2[C@H](CO)O1)NCc1ccc2c(c1)OCO2 | inactive | inactive | inactive
21 | COC(=O)C(CC#Cc1ccc2c(c1)[C@]1(C(=O)N2)[C@H](c2ccc(O)cc2)N2[C@H](c3ccccc3)[C@H](c3ccccc3)OC(=O)[C@H]2[C@@H]1C(=O)NC[C@H](O)c1ccccc1)C(=O)OC | inactive | inactive | inactive
22 | C[C@H]1CN([C@@H](C)CO)C(=O)Cc2cc(NC(=O)Nc3ccccc3)ccc2O[C@H]1CN(C)C(=O)Nc1cccc2ccccc12 | inactive | inactive | inactive
23 | C[C@H]1CCCCO[C@@H](CN(C)C(=O)CCCN(C)C)[C@@H](C)CN([C@@H](C)CO)C(=O)c2cc(NC(=O)Nc3ccc(F)cc3)ccc2O1 | inactive | inactive | inactive
24 | C[C@@H]1CCCCO[C@@H](CN(C)CC2CCCCC2)[C@@H](C)CN([C@@H](C)CO)C(=O)c2cc(NC(=O)C3CCCCC3)ccc2O1 | inactive | active | inactive
25 | C[C@@H]1CN([C@@H](C)CO)C(=O)c2cc(NS(=O)(=O)c3cn(C)cn3)ccc2O[C@H]1CN(C)S(C)(=O)=O | inactive | active | inactive
26 | COCC(=O)Nc1ccc2c(c1)C(=O)N(C)C[C@H](OC)[C@H](C)CN(C(=O)c1ccccc1F)[C@@H](C)CO2 | inactive | inactive | inactive
27 | C[C@@H]1CN([C@H](C)CO)C(=O)c2cc(NS(=O)(=O)c3ccc(Cl)cc3)ccc2O[C@@H](C)CCCCO[C@H]1CN(C)Cc1ccc(Cl)c(Cl)c1 | active | active | inactive
28 | C[C@@H]1CN([C@H](C)CO)C(=O)c2cc(NC(=O)Cc3cn(C)c4ccccc34)ccc2O[C@H]1CN(C)Cc1ccc(C(=O)Nc2ccccc2N)cc1 | inactive | inactive | inactive
